# In PubChem BioAssay (NCATS):
# Inconclusive results, whose numbers are uncertain, are shown with a selection of clear calls. For some assays here: A potency beside an inconclusive call is a rough fit, not a confirmed value. For some assays here: “Side channel” marks fits to a control or component signal instead of the main read-out. Active and inactive are the calls of the source. Unless noted, calls come from the whole dose curve; as a rule, active = well fitted curve in the direction sought with a large enough effect; inconclusive = small, poorly fitted or top-dose-only effect, or another doubt; inactive = no such curve, though single readings can be large; an effect the other way counts as inactive or inconclusive.
# Columns and labels:
# [1] = AP1 Signaling Pathway (AID 357; active = well fitted curve in either direction with a large enough effect, not every such curve was filed as active; inconclusive = small, poorly fitted or top-dose-only effect, or another doubt;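 note: ME-180 reporter cells stimulated with EGF at its EC50 level; top concentration of the series differs between compounds; % is set by controls: 0 for no effect and ±100 for the full control effect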); details: ME-180 AP-1-bla reporter, EGF-induced, beta-lactamase ratio, 5 h; at 7.69 µM (top of the series) unless noted
# Outline: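 AP-1-bla ME-180 cells, Opti-MEM + 0.5% dialyzed FBS, plated overnight 37 °C. Cpd titration + EC50 EGF, 5 h 37 °C. CCF4 2.5 h RT; ex 405, em 460/530 ratio → %activity, AC50.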
# [2] = NFAT Signaling Pathway (AID 444; active = well fitted curve in either direction with a large enough effect, not every such curve was filed as active; inconclusive = small, poorly fitted or top-dose-only effect, or another doubt;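 note: carbachol stimulus at about its EC50 of 1 µM final; % is set by controls: 0 for no effect and ±100 for the full control effect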); details: Jurkat NFAT-bla M1, carbachol, beta-lactamase ratio, 5 h; at 7.69 µM (top of the series) unless noted
# Outline: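 Jurkat cells carrying an NFAT-driven β-lactamase reporter and co-transfected muscarinic M1 receptor were treated with compound plus carbachol (1 uM final, an EC50 level) for 5 h at 37 °C. CCF4 loading followed for 1 h at RT; 460/530 nm ratio gave %activity.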
# [3] = Stat Signaling Pathway (AID 446; active = well fitted curve in either direction with a large enough effect, not every such curve was filed as active; inconclusive = small, poorly fitted or top-dose-only effect, or another doubt;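 note: ME-180 cervical cancer cells given 40 pM IL-6 alongside compound; SIE-controlled beta-lactamase reporter measured as 460/530 nm FRET emission ratio; top concentration of the series differs between compounds; % is set by controls: 0 for no effect and ±100 for the full control effect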); details: ME-180 SIE beta-lactamase reporter, IL-6 stimulated, 5 h; at 7.69 µM (top of the series) unless noted
# Outline: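 Screening format detects activators and inhibitors alike: ME-180 SIE-bla cells stimulated at 40 pM IL-6 for 5 hrs with compound, then dual-emission beta-lactamase read at 405 nm excitation.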
# [4] = target: Mitogen-activated protein kinase 10 (Mus musculus) (UniProt Q61831); experiment: JNK3 AlphaScreen Assay (AID 530; active = well fitted curve in either direction with a large enough effect, not every such curve was filed as active; inconclusive = small, poorly fitted or top-dose-only effect, or another doubt;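 note: kinase came from lysate of stimulated human HepG2 cells; signal reports phosphorylation of biotinylated GST-cJun 1-79 at Ser73 with 10 µM ATP; potency is the fitted concentration of half-maximal effect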); details: JNK3 lysate, c-Jun phosphorylation; activity change, negative = inhibition: at 57.1 µM (top of the series)
# Outline: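 Inhibitors reduce antibody binding to phosphorylated biotin-cJun, lowering AlphaScreen luminescence. Lysates from HepG2 cells pre-activated by IL-1beta plus TNF-alpha supplied JNK3; compounds were titrated.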
# [5] = qHTS Assay for Identification of Small Molecule Antagonists for NFkB Signaling Pathway (AID 895; active = well fitted inhibition curve with a large enough effect in the signal ratio, with a control signal flat, not every such curve was filed as active; inconclusive = small, poorly fitted or top-dose-only effect, or effect the other way, or a change in a side signal; the % refers to the signal ratio; note: potency is the fitted concentration of half-maximal effect); details: NFkB beta-lactamase reporter cells, FRET ratio 460/530, stimulated with 10 pM TNF alpha; activity change, negative = inhibition: at 38.3 µM (top of the series)
# Outline: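 NFkB-bla ME-180 cervical carcinoma cells with beta-lactamase reporter under NFkB response element; compounds added, then TNF alpha at 10 pM final (EC50), 5 h at 37 C. LiveBLAzer substrate 2 h, room temperature; emission 460/530 nm at 405 nm excitation.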
# [6] = qHTS Assay for Identification of Small Molecule Agonists for Thrombopoietin (TPO) Signaling Pathway (AID 917); note: potency is the fitted concentration of half-maximal effect
# Outline: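 Murine Ba/F3 cells expressing human TPO receptor and GPIIb-promoter luciferase, IL-3-starved overnight, given compound plus TPO at 26 pM (EC50). After 24 h at 37 C, 5% CO2, luminescence read.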
# [7] = target: Muscarinic acetylcholine receptor M1 (Rattus norvegicus) (UniProt P08482); experiment: qHTS Assay for Antagonists of Acetylcholine Muscarinic M1 Receptor: Measurement of IP-One Response (AID 944); note: potency is the fitted concentration of half-maximal effect; nearly all actives have a fitted effect of over 75% in size
# UniProt P08482, sequence (P08482 whole entry, looked up): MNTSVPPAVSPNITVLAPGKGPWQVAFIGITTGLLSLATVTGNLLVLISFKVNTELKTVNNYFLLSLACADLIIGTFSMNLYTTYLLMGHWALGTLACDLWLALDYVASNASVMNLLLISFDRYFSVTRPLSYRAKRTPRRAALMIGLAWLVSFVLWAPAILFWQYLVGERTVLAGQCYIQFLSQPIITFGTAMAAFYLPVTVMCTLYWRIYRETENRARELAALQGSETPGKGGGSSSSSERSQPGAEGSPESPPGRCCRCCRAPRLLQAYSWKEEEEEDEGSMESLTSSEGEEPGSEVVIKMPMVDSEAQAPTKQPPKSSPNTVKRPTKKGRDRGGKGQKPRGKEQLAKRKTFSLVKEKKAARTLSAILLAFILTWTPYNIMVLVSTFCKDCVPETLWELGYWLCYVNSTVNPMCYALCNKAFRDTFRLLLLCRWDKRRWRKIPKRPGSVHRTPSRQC
# [8] = qHTS Assay for Lipid Storage Modulators (AID 1519; calls by dose curve; note: % is set by controls: 0 for no effect and ±100 for the full control effect); details: Drosophila S3 cells, BODIPY lipid droplet/cell ratio, laser cytometry, cells loaded with oleic acid; activity change, negative = inhibition: at 57.5 µM (top of the series) unless noted
# Outline: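 Cells seeded at 5,000 per well were treated with compounds over a concentration series and loaded with oleic acid (400 uM, as added). Lipid droplet fluorescence (488 nm excitation, 500-530 nm channel) was read by laser-scanning cytometry and normalized to 20 uM Triacsin C.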
# [9] = target: Endonuclease 4 (Escherichia coli (strain K12)) (UniProt P0A6C1); experiment: Counterscreen for APE1 Inhibitors: qHTS Validation Assay for Inhibitors of Endonuclease IV (AID 1708); note: potency is the fitted concentration of half-maximal effect
# Outline: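 Concentration-response counterscreen run identically to the APE1 assay: 15 min room-temperature preincubation of 2 nM enzyme with compound, reaction started with 50 nM quenched abasic DNA, progress taken from kinetic fluorescence.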
# [10] = qHTS for differential inhibitors of proliferation of Plasmodium falciparum line 7G8 (AID 1815);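 note: potency is the fitted concentration of half-maximal effect; parasite growth measured after three days of incubation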
# [11] = qHTS for differential inhibitors of proliferation of Plasmodium falciparum line 3D7 (AID 1876);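 note: parasite growth measured after three days of culture; 0% = vehicle wells and -100% = reference inhibitor wells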
# [12] = qHTS for differential inhibitors of proliferation of Plasmodium falciparum line D10 (AID 1877);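 note: parasites grown with compound for 72 h before DNA staining; plate controls were vehicle wells for no effect and reference inhibitor wells for full effect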
# [13] = qHTS for differential inhibitors of proliferation of Plasmodium falciparum line W2 (AID 1883); details: Potency: Plasmodium falciparum W2 proliferation inhibition;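 note: potency is the fitted concentration of half-maximal effect; parasites grown with compound for 72 h before lysis and staining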
# [14] = qHTS for differential inhibitors of proliferation of Plasmodium falciparum line HB3 (AID 1886); details: Potency: Plasmodium falciparum HB3 proliferation inhibition;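 note: parasites grown with compound for 72 h before SYBR Green readout; plate controls were vehicle for no effect and reference inhibitor for full effect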
# [15] = target: RecQ-like DNA helicase BLM (Homo sapiens) (UniProt P54132); experiment: qHTS Validation Assay for Inhibitors of Bloom's syndrome helicase (BLM) (AID 2364); note: potency is the fitted concentration of half-maximal effect
# UniProt P54132, sequence (P54132 whole entry, looked up): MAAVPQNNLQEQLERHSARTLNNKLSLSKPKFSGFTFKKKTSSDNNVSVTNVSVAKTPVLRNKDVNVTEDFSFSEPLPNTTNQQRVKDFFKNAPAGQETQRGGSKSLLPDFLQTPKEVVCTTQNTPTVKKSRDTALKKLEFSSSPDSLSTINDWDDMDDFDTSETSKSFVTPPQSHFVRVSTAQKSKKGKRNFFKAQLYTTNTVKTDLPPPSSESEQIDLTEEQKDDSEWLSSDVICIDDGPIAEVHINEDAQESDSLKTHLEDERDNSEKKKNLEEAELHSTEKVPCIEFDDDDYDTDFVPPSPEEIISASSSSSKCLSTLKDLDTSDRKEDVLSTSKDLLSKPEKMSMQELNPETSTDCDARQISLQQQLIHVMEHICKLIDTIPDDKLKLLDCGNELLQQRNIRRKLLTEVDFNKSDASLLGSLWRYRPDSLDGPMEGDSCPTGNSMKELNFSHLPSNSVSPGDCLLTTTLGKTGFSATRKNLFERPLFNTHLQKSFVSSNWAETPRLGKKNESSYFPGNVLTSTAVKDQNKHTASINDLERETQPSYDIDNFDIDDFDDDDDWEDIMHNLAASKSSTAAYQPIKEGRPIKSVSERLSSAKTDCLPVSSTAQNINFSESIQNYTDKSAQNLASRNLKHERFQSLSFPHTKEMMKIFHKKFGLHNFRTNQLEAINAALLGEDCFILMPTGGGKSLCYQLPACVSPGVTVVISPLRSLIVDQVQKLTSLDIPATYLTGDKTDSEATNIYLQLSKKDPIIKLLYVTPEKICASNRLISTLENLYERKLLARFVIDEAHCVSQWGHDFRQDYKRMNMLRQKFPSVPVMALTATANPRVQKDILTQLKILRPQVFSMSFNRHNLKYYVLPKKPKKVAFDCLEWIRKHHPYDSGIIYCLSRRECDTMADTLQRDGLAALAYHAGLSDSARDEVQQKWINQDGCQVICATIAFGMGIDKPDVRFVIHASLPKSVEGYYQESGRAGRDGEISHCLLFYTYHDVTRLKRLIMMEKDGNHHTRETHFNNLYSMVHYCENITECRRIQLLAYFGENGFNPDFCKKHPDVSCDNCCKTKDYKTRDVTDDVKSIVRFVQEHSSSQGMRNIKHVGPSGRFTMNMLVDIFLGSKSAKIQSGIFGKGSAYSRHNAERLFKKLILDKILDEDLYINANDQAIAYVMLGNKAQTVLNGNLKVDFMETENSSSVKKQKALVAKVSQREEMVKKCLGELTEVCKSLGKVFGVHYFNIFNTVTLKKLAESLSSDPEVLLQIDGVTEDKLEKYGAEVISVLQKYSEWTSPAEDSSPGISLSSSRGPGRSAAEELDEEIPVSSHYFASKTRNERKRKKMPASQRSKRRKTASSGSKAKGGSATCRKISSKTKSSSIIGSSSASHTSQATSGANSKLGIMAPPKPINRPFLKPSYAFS
# Outline: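 BLM 50 nM in 25 mM Tris-HCl pH 8.0, 5 mM NaCl, 2 mM MgCl2, 1 mM DTT, 0.01% Tween-20, 2.5 ug/ml poly(dI-dC); 15 min cpd preinc, RT. Start: 200 nM forked DNA + 2 mM ATP (final). TAMRA read, 2 reads 2 h apart.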
# [16] = Validation screen for small molecules that induce DNA re-replication in MCF 10A normal breast cells (AID 463097); note: potency is the fitted concentration of half-maximal effect; nearly all actives have a fitted effect of over 60% in size
# Outline: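 MCF 10A cells exposed to compound 48 hr at 37 C, 5% CO2, then Hoechst-stained 40 min. Laser-scanning imaging of nuclear DNA content (405 nm ex, 500-530 nm em); re-replication scored as rise in nuclei with elevated fluorescence intensity.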
# [17] = target: Ubiquitin carboxyl-terminal hydrolase 2 (Homo sapiens) (UniProt O75604); experiment: qHTS Validation Assay for Inhibitors of Ubiquitin-specific Protease USP2a Using CHOP2 as the Reporter (AID 463106); details: USP2a cleavage of CHOP2 reporter, enzymatic; note: potency is the fitted concentration of half-maximal effect
# Outline: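 USP2 core (10nM final) was preincubated with compound for 30min at RT in 20mM Tris-HCl pH 8.0, 2mM CaCl2, 2mM beta-mercaptoethanol, 0.05% CHAPS. Ub-CHOP2 and reporter substrate (25nM each) were added, and fluorescence (Ex 485/Em 531nm) was read after 60min.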
# [18] = target: ATP-dependent 6-phosphofructokinase (Trypanosoma brucei brucei) (UniProt O15648); experiment: qHTS Validation Assay to Find Inhibitors of T. brucei phosphofructokinase (AID 485368); note: potency is the fitted concentration of half-maximal effect
# UniProt O15648, sequence (O15648 whole entry, looked up): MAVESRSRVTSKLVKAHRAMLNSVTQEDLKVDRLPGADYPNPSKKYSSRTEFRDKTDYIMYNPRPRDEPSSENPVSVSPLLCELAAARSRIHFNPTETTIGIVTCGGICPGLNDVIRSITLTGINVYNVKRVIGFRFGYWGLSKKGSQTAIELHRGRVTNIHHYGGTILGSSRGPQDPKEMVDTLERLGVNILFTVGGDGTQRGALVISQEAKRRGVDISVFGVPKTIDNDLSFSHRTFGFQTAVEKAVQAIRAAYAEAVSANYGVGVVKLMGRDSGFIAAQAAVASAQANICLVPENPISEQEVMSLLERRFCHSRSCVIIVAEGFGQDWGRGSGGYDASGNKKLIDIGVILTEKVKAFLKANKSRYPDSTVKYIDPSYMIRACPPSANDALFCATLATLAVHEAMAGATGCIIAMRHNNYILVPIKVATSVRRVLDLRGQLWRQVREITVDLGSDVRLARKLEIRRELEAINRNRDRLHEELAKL
# Outline: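 Enzyme reaction in triethanolamine buffer pH 8.0 with 5 mM MgCl2, 0.01% Tween20 and 0.1% BSA; PFK 1.25 nM, F6P 0.5 mM, ATP 0.1 mM, 45 min RT. ADP quantified by ADP-Glo.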
# [19] = Quantitative high throughput screen for delayed death inhibitors of the malarial parasite plastid, 96 hour incubation (AID 488745); note: potency is the fitted concentration of half-maximal effect; nearly all actives have a fitted effect of over 70% in size
# Outline: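 Infected erythrocytes were added to compound in Albumax-supplemented RPMI 1640 at 0.1% parasitemia and 2% hematocrit (final), incubated 96 h at 37 C under 5% CO2, then luciferase reagent was added and luminescence measured.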
# [20] = target: Chromobox protein homolog 1 (Homo sapiens) (UniProt P83916); experiment: qHTS Validation Assay for Inhibitors of HP1-beta Chromodomain Interactions with Methylated Histone Tails (AID 488953); note: potency is the fitted concentration of half-maximal effect; nearly all actives have a fitted effect of over 50% in size
# UniProt P83916, sequence (P83916 whole entry, looked up): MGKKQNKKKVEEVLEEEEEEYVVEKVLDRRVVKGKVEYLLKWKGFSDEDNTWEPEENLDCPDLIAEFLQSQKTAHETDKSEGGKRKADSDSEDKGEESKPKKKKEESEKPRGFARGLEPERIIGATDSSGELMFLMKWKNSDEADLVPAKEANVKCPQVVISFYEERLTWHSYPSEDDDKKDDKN
# Outline: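 50 nM HP1-beta + 50 nM biotin-H3(1-18)K9me3, PBS pH 7.4, 0.01% Tween-20, 30 min RT; compound added, 30 min RT; AlphaScreen beads 10 ug/mL final, 30 min dark; luminescence read.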
# [21] = target: D(1A) dopamine receptor (Homo sapiens) (UniProt P21728); experiment: HTS Assay for Allosteric Agonists of the Human D1 Dopamine Receptor: Primary Screen for Antagonists (AID 488983);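 note: calcium flux response to an EC80 dopamine challenge measured with no-wash dye; potency is the fitted concentration of half-maximal effect; nearly all actives have a fitted effect of over 65% in size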
# UniProt P21728, sequence (P21728 whole entry, looked up): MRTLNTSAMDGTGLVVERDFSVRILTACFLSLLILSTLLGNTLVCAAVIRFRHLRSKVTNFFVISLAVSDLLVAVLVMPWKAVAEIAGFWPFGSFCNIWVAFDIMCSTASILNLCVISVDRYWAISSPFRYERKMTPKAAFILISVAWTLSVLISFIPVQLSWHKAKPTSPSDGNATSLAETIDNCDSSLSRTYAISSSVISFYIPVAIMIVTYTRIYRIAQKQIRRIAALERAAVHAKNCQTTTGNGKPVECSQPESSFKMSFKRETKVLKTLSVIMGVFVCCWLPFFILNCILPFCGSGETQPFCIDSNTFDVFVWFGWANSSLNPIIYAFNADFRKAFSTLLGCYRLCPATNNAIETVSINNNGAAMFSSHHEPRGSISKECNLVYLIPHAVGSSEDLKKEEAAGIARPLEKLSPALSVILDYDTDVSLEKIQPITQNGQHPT
# Outline: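 Cells are induced with tetracycline and incubated overnight at 30 C, then loaded with calcium dye for 30 to 90 minutes at room temperature. Compound addition is followed by a 180 s read, then an EC80 dopamine addition and another 180 s read.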
# [22] = target: ATPase family AAA domain-containing protein 5 (Homo sapiens) (UniProt Q96QE3); experiment: Validation screen for small molecules that inhibit ELG1-dependent DNA repair in human embryonic kidney (HEK293T) cells expressing luciferase-tagged ELG1 (AID 493107); details: HEK293T ELG1-luciferase level, luminescence, 5-fluorouridine co-treatment, 16 h; activity change, negative = decrease: at 46.1 µM (top of the series);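 note: cells co-treated with the DNA-damaging agent 5-fluorouridine alongside compound; % is set by controls: 0 for no effect and ±100 for the full control effect; inhibitors lower the ELG1-luciferase luminescence signal; nearly all actives have a fitted effect of over 70% in size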
# UniProt Q96QE3, sequence (Q96QE3 whole entry, looked up, the tested form may be a part): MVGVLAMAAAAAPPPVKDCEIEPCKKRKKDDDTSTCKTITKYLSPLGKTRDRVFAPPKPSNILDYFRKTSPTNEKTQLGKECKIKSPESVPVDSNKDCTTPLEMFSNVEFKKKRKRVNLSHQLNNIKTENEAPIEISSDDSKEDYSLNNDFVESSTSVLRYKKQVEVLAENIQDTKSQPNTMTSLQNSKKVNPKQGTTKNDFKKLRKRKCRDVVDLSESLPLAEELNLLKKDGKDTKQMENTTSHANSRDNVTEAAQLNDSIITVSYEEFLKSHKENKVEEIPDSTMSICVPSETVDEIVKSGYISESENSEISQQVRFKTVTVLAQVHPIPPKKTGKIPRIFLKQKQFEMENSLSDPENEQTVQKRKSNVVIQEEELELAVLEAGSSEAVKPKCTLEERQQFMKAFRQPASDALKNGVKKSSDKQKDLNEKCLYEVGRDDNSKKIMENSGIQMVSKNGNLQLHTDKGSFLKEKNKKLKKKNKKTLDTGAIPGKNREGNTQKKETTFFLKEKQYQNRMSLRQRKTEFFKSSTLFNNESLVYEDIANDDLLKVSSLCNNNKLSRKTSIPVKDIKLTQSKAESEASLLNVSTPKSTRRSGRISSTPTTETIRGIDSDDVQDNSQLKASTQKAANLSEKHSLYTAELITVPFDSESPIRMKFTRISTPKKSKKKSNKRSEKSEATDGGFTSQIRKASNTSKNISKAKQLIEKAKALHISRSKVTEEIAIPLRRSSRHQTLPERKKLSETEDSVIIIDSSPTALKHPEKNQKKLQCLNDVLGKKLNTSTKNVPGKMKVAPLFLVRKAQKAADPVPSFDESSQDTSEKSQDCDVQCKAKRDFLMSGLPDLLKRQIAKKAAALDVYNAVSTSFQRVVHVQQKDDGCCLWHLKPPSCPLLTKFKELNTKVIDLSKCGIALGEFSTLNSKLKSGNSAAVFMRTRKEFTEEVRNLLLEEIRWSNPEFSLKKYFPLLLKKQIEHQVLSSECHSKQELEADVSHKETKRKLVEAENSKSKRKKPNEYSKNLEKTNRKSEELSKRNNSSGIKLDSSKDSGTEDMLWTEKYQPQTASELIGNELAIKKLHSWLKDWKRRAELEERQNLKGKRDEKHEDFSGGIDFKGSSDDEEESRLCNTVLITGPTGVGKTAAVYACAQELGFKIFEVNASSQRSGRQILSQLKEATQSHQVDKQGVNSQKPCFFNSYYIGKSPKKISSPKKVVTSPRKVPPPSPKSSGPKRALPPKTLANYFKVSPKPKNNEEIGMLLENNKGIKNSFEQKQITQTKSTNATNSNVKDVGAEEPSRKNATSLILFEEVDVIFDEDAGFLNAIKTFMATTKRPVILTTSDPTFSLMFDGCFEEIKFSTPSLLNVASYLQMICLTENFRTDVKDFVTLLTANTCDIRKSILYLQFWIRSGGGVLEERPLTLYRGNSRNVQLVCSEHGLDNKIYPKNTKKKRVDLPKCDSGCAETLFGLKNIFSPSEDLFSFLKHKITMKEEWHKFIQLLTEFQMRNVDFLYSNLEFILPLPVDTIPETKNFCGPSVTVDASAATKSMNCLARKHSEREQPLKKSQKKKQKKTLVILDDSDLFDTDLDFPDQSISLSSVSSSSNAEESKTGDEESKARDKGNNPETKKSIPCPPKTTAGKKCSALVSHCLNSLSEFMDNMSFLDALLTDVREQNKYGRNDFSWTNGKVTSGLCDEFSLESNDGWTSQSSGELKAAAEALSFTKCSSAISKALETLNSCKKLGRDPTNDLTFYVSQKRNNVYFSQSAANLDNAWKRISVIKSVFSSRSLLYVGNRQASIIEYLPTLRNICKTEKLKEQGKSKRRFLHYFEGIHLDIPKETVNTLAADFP
# Outline: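 Luminescence from ONE-Glo, developed 30 min at room temperature, served as read-out of ELG1-luciferase levels. Beforehand, reporter HEK293T cells received 5-fluorouridine plus test compound for 16 hr at 37 °C.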
# [23] = qHTS for Inhibitors of ATXN expression: Validation of Cytotoxic Assay (AID 588349); note: potency is the fitted concentration of half-maximal effect
# Outline: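 Read-out: ATP-based luminescence (CellTiter Glo) reflecting viability of HEK293 cells after 72 hr incubation at 37 degrees C with a concentration series of each compound.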
# Tags give direction and shape of the fitted curve or compound fluorescence and quenching.
smiles,measurement,setting,value
CCCc1c(-c2ccc(O)cc2)nn(-c2ccc(O)cc2)c1-c1ccc(O)cc1,"activity change, negative = inhibition",[1],inconclusive: -89.5% [inhibitor] [at 38 µM]
same,"activity change, negative = inhibition",[2],inconclusive: -127% [inhibitor] [at 38 µM]
same,"activity, negative = inhibition",[3],inconclusive: -45.8% [inhibitor] [at 38 µM]
same,Potency,[4],"inconclusive: 39.8 µM [activator, single point]"
same,Potency,[5],"inconclusive: 28.2 µM [cytotoxic, side channel, single point]"
same,Potency,[6],"inconclusive: 7.94 µM [inhibitor, partial curve]"
same,Potency,[7],"inconclusive: 17.8 µM [inhibitor, partial curve, poor fit]"
same,"activity change, negative = inhibition",[8],inconclusive: 13.5%
same,Potency,[9],"inconclusive: 50.1 µM [inhibitor, partial curve, poor fit]"
same,Potency,[10],"inconclusive: 7.94 µM [inhibitor, partial curve]"
same,Potency,[11],inactive
same,Potency,[12],inactive
same,Potency,[13],"inconclusive: 8.91 µM [inhibitor, single point]"
same,Potency,[14],inactive
same,Potency,[15],"inconclusive: 20 µM [inhibitor, partial curve]"
same,Potency,[16],"inconclusive: 25.1 µM [activator, single point]"
same,Potency,[17],"inconclusive: 26.1 µM [falling, single point]"
same,Potency,[18],"inconclusive: 37.9 µM [activator, single point]"
same,Potency,[19],"inconclusive: 9.28 µM [activator, partial curve]"
same,Potency,[20],"inconclusive: 35.5 µM [inhibitor, partial curve]"
same,Potency,[21],"inconclusive: 14.1 µM [activator, single point]"
same,Potency,[22],inactive
same,Potency,[23],"inconclusive: 25.1 µM [cytotoxic, single point]"
